Reference: patent CN109971721A (SHANGHAI CELL THERAPY RES INST; SHANGHAI CELL THERAPY GROUP …, dated 2019)

Biological target: T1, CD47 on the surface of human cells (αCD47-Meso3CAR T细胞; tumour cell lines Hgc27, SKOV3, ASPC-1) (human, UniProt Q08722)
T1 construct: whole, on cells; also called 细胞表面的CD47; 肿瘤细胞表面CD47
Test: flow cytometry on T cells, masking of staining by FITC mouse anti-human CD47

UniProt Q08722, sequence (Q08722 19-323): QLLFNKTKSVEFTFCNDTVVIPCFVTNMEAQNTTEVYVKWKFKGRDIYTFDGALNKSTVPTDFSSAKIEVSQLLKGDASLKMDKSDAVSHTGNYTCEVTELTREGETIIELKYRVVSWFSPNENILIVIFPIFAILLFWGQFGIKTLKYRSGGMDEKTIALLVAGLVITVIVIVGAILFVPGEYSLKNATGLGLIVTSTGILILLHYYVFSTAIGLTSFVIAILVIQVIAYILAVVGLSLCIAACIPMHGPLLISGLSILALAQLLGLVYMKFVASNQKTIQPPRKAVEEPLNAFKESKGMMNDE

B1: 突变型αCD47 (CD47抗体 secreted by αCD47-Meso3CAR T细胞; CD47配体 fused to mutant IgG4 Fc) (Fc fusion)
chain: EEELQIIQPDKSVLVAAGETATLRCTITSLFPVGPIQWFRGAGPGRVLIYNQRQGPFPRVTTVSDTTKRNNMDFSIRIGNITPADAGTYYCIKFRKGSPDDVEFKSGAGTELSVRAKP[human IgG4 Fc with S228P L235E N297Q (EU numbers) left out]
notes: Tested as secreted product in the culture supernatant of αCD47-Meso3CAR T cells, not purified; also called pS328-αCD47 product
binding result: binds
